This passage reports relative growth results from the supplement of paper PMC9446081.

The whole screen tested about 39,000 compounds, of which about 220 (0.56%) showed activity. Some of the results follow.
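Note: static incubation at 37 °C against the wild-type strain, values averaged over two biological replicates.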

This experiment relates to Escherichia coli K-12 BW25113. Nature of the experiment: relative growth (OD600 normalised to plate interquartile mean) (fraction); higher = less growth inhibition, active = 0.2 or less. The settings on record: 50 µM; LB; incubation time: overnight (16-24 h).
With `Cc1cn2c(nc1=O)O[C@@H]1C[C@H]2O[C@@H]1CO`, the relative growth is inactive: 1.

For `C[C@H](CO)N1C[C@H](C)[C@@H](CN(C)C(=O)Nc2ccc3c(c2)OCO3)Oc2ccc(NC(=O)Nc3ccc(C(F)(F)F)cc3)cc2CC1=O`, the relative growth was inactive: 0.976.

With `C[C@@H]1CN([C@@H](C)CO)C(=O)Cc2cc(NC(=O)CCC(F)(F)F)ccc2O[C@@H]1CN(C)C(=O)Nc1ccc(C(F)(F)F)cc1`, the relative growth is inactive: 0.995.

Turning to `CC(C)C1CCC(C(=O)NC(Cc2ccccc2)C(=O)O)CC1` (configuration not stated), the relative growth was inactive: 1.18.

For the molecule `CO[C@@H]1CN(C)C(=O)c2cc(NC(=O)c3ccc(F)cc3)ccc2OC[C@H](C)N(C(=O)CN(C)C)C[C@H]1C`, the relative growth was inactive: 0.998.

In the case of `Nc1ccc(S(=O)(=O)Nc2ncccn2)cc1`, the relative growth is inactive: 1.09.

`C[C@H](CO)N1C[C@H](C)[C@H](CN(C)Cc2ccc(C(F)(F)F)cc2)Oc2ccc(NC(=O)NC3CCCCC3)cc2C1=O`: the relative growth was inactive: 0.925.

Regarding `C[C@@H]1CN([C@@H](C)CO)S(=O)(=O)c2ccc(Br)cc2O[C@@H]1CN(C)S(=O)(=O)c1ccccc1`, the relative growth is inactive: 1.01.

For the molecule `COc1ccc(NC(=O)N(C)C[C@@H]2Oc3c(NC(=O)c4cc(C)nn4C)cccc3C(=O)N([C@H](C)CO)C[C@@H]2C)cc1`, the relative growth is inactive: 0.996.

As to `CC(C)NC(=O)N(C)C[C@@H]1Oc2ccc(NS(=O)(=O)c3ccc(Cl)cc3)cc2CC(=O)N([C@@H](C)CO)C[C@@H]1C`, the relative growth was inactive: 0.995.

In the case of `C[C@H](O)C#Cc1ccc2c(c1)O[C@H](CN(C)C(=O)Nc1ccccc1)[C@H](C)CN([C@@H](C)CO)S2(=O)=O`, the relative growth is inactive: 0.992.

On to `O=C(CN1CCOCC1)NCC[C@H]1CC[C@H](NS(=O)(=O)c2ccc(F)cc2)[C@@H](CO)O1`, for which the relative growth is inactive: 0.984.

For `C[C@H]1CN([C@@H](C)CO)S(=O)(=O)c2ccc(-c3cccc(C#N)c3)cc2O[C@H]1CN(C)C(=O)c1cccnc1`, the relative growth is inactive: 1.01.

`C[C@H](CO)N1C[C@H](C)[C@@H](CN(C)Cc2ccc(-c3ccccc3)cc2)Oc2ccc(NC(=O)Cc3ccccc3)cc2CC1=O`: the relative growth was inactive: 1.02.

Take `C[C@@H]1CCCCO[C@H](CN(C)CC2CC2)[C@@H](C)CN([C@H](C)CO)C(=O)c2cc(NC(=O)Nc3ccc4c(c3)OCO4)ccc2O1`: the relative growth was inactive: 0.989.

As to `CCNC(=O)C=Cc1cccc(Br)c1`, the relative growth was inactive: 0.88.

Regarding `C[C@@H]1CN([C@H](C)CO)C(=O)Cc2cc(NC(=O)Nc3ccccc3)ccc2O[C@@H]1CN(C)Cc1ccc(C(=O)Nc2ccccc2N)cc1`, the relative growth is inactive: 0.971.

For the molecule `C[C@H](CO)N1C[C@H](C)[C@H](CN(C)S(=O)(=O)c2ccc(Cl)cc2)Oc2ccc(NC(=O)Nc3ccc(C(F)(F)F)cc3)cc2CC1=O`, the relative growth is inactive: 0.984.

Consider `C[C@@H]1CCCCO[C@H](CN(C)C(=O)Nc2ccc(C(F)(F)F)cc2)[C@H](C)CN([C@@H](C)CO)C(=O)c2cc(NC(=O)c3ccncc3)ccc2O1`, for which the relative growth is inactive: 1.

As for `COc1ccc(NC(=O)N(C)C[C@@H]2Oc3c(NC(=O)C4CC4)cccc3C(=O)N([C@@H](C)CO)C[C@@H]2C)cc1`, the relative growth is inactive: 0.984.

On to `NC(=O)NCC#Cc1ccc2c(c1)[C@]1(C(=O)N2)[C@H](c2ccccc2OCCO)N2[C@H](c3ccccc3)[C@H](c3ccccc3)OC(=O)[C@H]2[C@@H]1C(=O)Nc1nc2ccccc2s1`, for which the relative growth is inactive: 1.01.

With `C[C@H]1OC(=O)c2c(O)ccc(O)c2[C@H]1O`, the relative growth is inactive: 1.01.

Take `O=C(O)c1cc(F)c2nc(N3[C@@H]4CC[C@H]3C[C@@H](OCc3c(-c5ccccc5OC(F)(F)F)noc3C3CC3)C4)sc2c1`: the relative growth is inactive: 0.852.

As for `C[C@@H]1CN([C@H](C)CO)C(=O)c2cccc(NS(=O)(=O)c3cn(C)cn3)c2O[C@@H]1CN(C)Cc1ccncc1`, the relative growth was inactive: 0.958.

Regarding `Cc1ccc(S(=O)(=O)NCCC(=O)O)cc1`, the relative growth was inactive: 0.926.

Regarding `CN(C)CCN1C[C@@H]2CN(C(=O)[C@H]3CCOC3)C[C@H]2C1=O`, the relative growth was inactive: 1.

For the molecule `C[C@H]1CCCCO[C@@H](CN(C)C(=O)C2CCCCC2)[C@@H](C)CN([C@@H](C)CO)C(=O)c2cc(NC(=O)NC3CCCCC3)ccc2O1`, the relative growth was inactive: 1.04.

For `COc1ccc2c3c(n(c2c1)C)[C@@H](CO)N(C[C@]13CCN(CC1)C(=O)c1ccccc1F)C(=O)Nc1ccccc1F`, the relative growth was inactive: 1.04.

As for `CC(=O)O[C@H]1[C@H](Oc2cc(O)cc(O)c2C(=O)c2cccc(O)c2)O[C@H](CO)[C@@H](OC(=O)c2ccccc2)[C@@H]1O`, the relative growth is inactive: 0.996.

Take `O=C(CCC1=NS(=O)(=O)c2cc(Br)cnc2N1)N1CCOCC1`: the relative growth is inactive: 0.998.

In the case of `Cc1ccc(S(=O)(=O)Nc2ccc3c(c2)CC(=O)N([C@H](C)CO)C[C@@H](C)[C@H](CN(C)Cc2ccc(C(F)(F)F)cc2)O3)cc1`, the relative growth is inactive: 0.993.

With `C[C@@H]1CN([C@H](C)CO)S(=O)(=O)c2ccc(C#Cc3ccccc3F)cc2O[C@@H]1CN(C)CC1CCOCC1`, the relative growth was inactive: 1.

Regarding `C[C@@H]1CN([C@@H](C)CO)C(=O)c2cccc(NS(C)(=O)=O)c2O[C@H]1CN(C)C(=O)Nc1ccccc1`, the relative growth is inactive: 0.996.

Consider `C[C@@H]1CCCCO[C@H](CN(C)C(=O)Cc2ccccc2)[C@H](C)CN([C@@H](C)CO)C(=O)c2cc(NC(=O)C3CCCCC3)ccc2O1`, for which the relative growth was inactive: 0.977.

Regarding `C[C@H]1CN([C@@H](C)CO)C(=O)c2cccc(NS(=O)(=O)c3cccs3)c2O[C@H]1CN(C)S(=O)(=O)c1cn(C)cn1`, the relative growth is inactive: 1.01.

`CC12CCC(=O)C=C1C1CC1C1C2CCC2(C)C1C1CC1C21CCC(=O)O1` (configuration not stated): the relative growth was inactive: 1.08.

For `C[C@H](CO)N1C[C@H](C)[C@H](CN(C)S(=O)(=O)c2ccc(C#N)cc2)Oc2ncc(Br)cc2C1=O`, the relative growth was inactive: 0.973.

`CC(C)CC#Cc1ccc2c(c1)O[C@@H](CN(C)C(=O)Cc1ccncc1)[C@H](C)CN([C@H](C)CO)S2(=O)=O`: the relative growth is inactive: 0.949.

Take `O=C(C[C@@H]1C[C@H]2c3cc(NC(=O)C4CCOCC4)ccc3O[C@H]2[C@H](CO)O1)NCc1ccc2c(c1)OCO2`: the relative growth is inactive: 1.01.

For the molecule `C[C@@H]1CN([C@H](C)CO)C(=O)c2cc(NC(=O)Cc3ccccc3)ccc2O[C@@H](C)CCCCO[C@H]1CN(C)S(=O)(=O)c1cccs1`, the relative growth was inactive: 1.05.

For `C[C@H](CO)N1C[C@H](C)[C@@H](CN(C)S(=O)(=O)c2cn(C)cn2)OCCCC[C@H](C)Oc2ccc(NS(C)(=O)=O)cc2C1=O`, the relative growth is inactive: 0.994.

In the case of `N[C@H]1CCN(O)C1=O`, the relative growth was inactive: 1.01.

In the case of `Cc1cc(C(=O)Nc2cccc3c2O[C@@H](CN(C)Cc2ccc(Oc4ccccc4)cc2)[C@@H](C)CN([C@H](C)CO)C3=O)n(C)n1`, the relative growth was inactive: 1.02.

With `O=C(C[C@@H]1CC[C@@H]2[C@H](COC[C@@H](O)CN2C(=O)c2cnccn2)O1)NCc1ccc(Oc2ccccc2)cc1`, the relative growth was inactive: 0.995.

As to `COc1ccc(S(=O)(=O)Nc2ccc3c(c2)C(=O)N([C@H](C)CO)C[C@@H](C)[C@@H](CN(C)C(=O)C2CCCCC2)OCCCC[C@@H](C)O3)cc1`, the relative growth was inactive: 1.01.

On to `CN(C)c1ccc(O)c2c1CC1CC3C(N(C)C)C(O)=C(C(N)=O)C(=O)C3(O)C(O)=C1C2=O.Cl` (configuration not stated), for which the relative growth is active: 0.0626.

Regarding `N=C(N)N/N=C1\CCc2c(C(=N)N)cccc21`, the relative growth was inactive: 1.01.

Take `C[C@@H]1CN([C@@H](C)CO)C(=O)c2cc(C#CCN(C)C)cnc2O[C@H]1CN(C)Cc1ccc2c(c1)OCO2`: the relative growth was inactive: 1.01.

As to `CN(C)c1cc(NC(=O)CNC(C)(C)C)c(O)c2c1C[C@H]1C[C@H]3[C@H](N(C)C)C(=O)C(C(N)=O)=C(O)[C@@]3(O)C(=O)[C@H]1C2=O`, the relative growth is inactive: 1.

In the case of `CO[C@H]1CN(C)C(=O)c2cc(NS(=O)(=O)CC(F)(F)F)ccc2OC[C@@H](C)N(C(=O)NC(C)C)C[C@@H]1C`, the relative growth is inactive: 0.966.

As for `Cc1noc(C)c1NC(=O)Nc1ccc2c(c1)C(=O)N(C)[C@H]1CC[C@H](CC(=O)Nc3ccc4c(c3)CCCC4)O[C@@H]1CO2`, the relative growth is inactive: 1.02.

Regarding `COc1cc(N2CCC(N3CCN(C)CC3)CC2)ccc1Nc1ncc(Cl)c(Nc2ccccc2S(=O)(=O)C(C)C)n1`, the relative growth was inactive: 1.02.

Take `C[C@@H]1CCCCO[C@H](CN(C)C(=O)Nc2ccccc2)[C@@H](C)CN([C@H](C)CO)C(=O)c2cc(NS(=O)(=O)c3cccs3)ccc2O1`: the relative growth is inactive: 0.963.

`CCCCOc1cc(C(=O)OCCN(CC)CC)ccc1N.Cl`: the relative growth is inactive: 0.955.

For the molecule `C[C@@H]1CN([C@@H](C)CO)C(=O)Cc2cc(NS(=O)(=O)c3cn(C)cn3)ccc2O[C@@H]1CN(C)CC1CC1`, the relative growth was inactive: 1.

`CCCCCCCc1c(C)c(O)cc2c1[nH]c1ccccc12`: the relative growth is inactive: 1.01.

Consider `COc1ccc(S(=O)(=O)Nc2ccc3c(c2)CC(=O)N([C@@H](C)CO)C[C@H](C)[C@@H](CN(C)C(=O)NC(C)C)O3)cc1`, for which the relative growth is inactive: 0.988.

As for `C[C@@H]1CN([C@H](C)CO)C(=O)Cc2cc(NS(=O)(=O)c3ccc(F)cc3)ccc2O[C@H]1CN(C)S(=O)(=O)c1cccs1`, the relative growth is inactive: 1.01.

As to `CC1(C)SC2C(NC(=O)C(N)c3ccc(O)cc3)C(=O)N2C1C(=O)O` (configuration not stated), the relative growth was inactive: 1.1.

For `COc1ccc([C@H]([C@H](Cc2ccccc2)OC(C)=O)N(CC#C[C@@H](O)c2ccccc2)[C@@H](Cc2ccccc2)C(OC)OC)cc1`, the relative growth was inactive: 1.05.

`CCNC1CN(CCCOC)S(=O)(=O)c2sc(S(N)(=O)=O)cc21` (configuration not stated): the relative growth is inactive: 1.

`C[C@@H]1CN([C@@H](C)CO)C(=O)CCCn2cc(nn2)CO[C@H]1CN(C)C(=O)Nc1ccc(C(F)(F)F)cc1`: the relative growth is inactive: 0.936.
